Experimental data taken from PMC4336329 (PLoS ONE, 2015).
Screen size: about 310,000 compounds; about 14,000 (4.5%) showed an effect of 50% or more. Effects have a minus sign here. This is one part of the list.

target: human ether-à-go-go-related gene (hERG) potassium channel (human, UniProt Q12809); experiment: primary screen, population patch clamp on CHO cells stably expressing hERG
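Further: peak tail current of the secondary pulse compared with the same well before compound.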

Chain of human ether-à-go-go-related gene (hERG) potassium channel (Q12809 whole entry, looked up): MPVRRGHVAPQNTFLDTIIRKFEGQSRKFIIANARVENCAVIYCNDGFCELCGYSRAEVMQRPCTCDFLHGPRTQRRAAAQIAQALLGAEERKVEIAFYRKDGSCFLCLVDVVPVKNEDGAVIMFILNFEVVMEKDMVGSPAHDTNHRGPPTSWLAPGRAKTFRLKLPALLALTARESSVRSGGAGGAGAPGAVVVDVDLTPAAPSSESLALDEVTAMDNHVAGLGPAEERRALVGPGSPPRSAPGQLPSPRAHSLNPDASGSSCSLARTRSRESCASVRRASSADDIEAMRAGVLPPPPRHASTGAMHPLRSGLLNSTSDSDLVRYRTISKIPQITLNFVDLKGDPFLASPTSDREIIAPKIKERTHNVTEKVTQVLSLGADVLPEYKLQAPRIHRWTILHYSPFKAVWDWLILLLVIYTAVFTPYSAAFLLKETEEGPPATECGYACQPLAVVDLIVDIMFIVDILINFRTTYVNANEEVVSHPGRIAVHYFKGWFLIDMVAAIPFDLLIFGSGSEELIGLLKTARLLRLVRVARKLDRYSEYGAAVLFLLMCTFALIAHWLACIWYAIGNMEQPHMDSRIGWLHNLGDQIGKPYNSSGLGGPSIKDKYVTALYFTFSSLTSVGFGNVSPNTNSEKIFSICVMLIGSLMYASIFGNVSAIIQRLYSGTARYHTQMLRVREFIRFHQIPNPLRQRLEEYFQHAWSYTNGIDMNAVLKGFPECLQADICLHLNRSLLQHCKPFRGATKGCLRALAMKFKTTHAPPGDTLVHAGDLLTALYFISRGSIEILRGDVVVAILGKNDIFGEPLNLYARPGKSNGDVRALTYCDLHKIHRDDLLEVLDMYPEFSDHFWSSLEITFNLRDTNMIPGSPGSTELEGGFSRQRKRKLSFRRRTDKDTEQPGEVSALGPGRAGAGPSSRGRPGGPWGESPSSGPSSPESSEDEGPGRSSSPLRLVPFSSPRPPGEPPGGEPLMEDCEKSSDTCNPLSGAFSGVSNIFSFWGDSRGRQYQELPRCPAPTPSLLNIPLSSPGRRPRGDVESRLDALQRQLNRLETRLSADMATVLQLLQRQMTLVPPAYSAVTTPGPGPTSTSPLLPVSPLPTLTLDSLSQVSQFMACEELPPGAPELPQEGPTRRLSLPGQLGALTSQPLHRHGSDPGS

Compared with `Cn1c(=O)cc(SCC(=O)NCCCN2CCN(c3ccccc3F)CC2)c2ccccc21`, `CCN(CCCNC(=O)CCn1c(=O)[nH]c2ccccc2c1=O)c1cccc(C)c1` is higher in “hERG current change (%, negative = inhibition) at 10uM” value: -55.5% for the first, 0.649% for the second.

Compared with `COc1ccccc1CNC(=O)c1nnc(Cc2ccc(Cl)cc2)o1`, `CN(C)CCNC(=O)c1ccc(COc2ccc(Cl)cc2Cl)cc1` is lower in “hERG current change (%, negative = inhibition) at 10uM” value: 9.83% for the first, -47.1% for the second.

Compared with `C/C=C(\C)C(=O)Nc1cccc(C2=NOC3(C2)C[C@@H](C(N)=O)N(C(=O)c2ccccc2C(=O)c2ccccc2)C3)c1` (some centres unmarked), `O=C(CNC(=O)c1ccccc1)OCc1nnc(-c2ccccc2)o1` is lower in “hERG current change (%, negative = inhibition) at 10uM” value: 3.06% for the first, -7.65% for the second.

First: CCCSc1nnc(NC(=O)c2nc(SC)ncc2Cl)s1
Second: Nc1nonc1-n1nnc(C(=O)N/N=C/c2c(Cl)cccc2Cl)c1CSC1=NCCS1
The “hERG current change (%, negative = inhibition) at 10uM” value of the first is lower: -9.02% for the first, 6.81% for the second.

First: O=C(CCC1CCCCC1)Nc1ncn[nH]1
Second: O=C(NC1CCCCC1)c1ccc(CNc2ccccc2)o1
The “hERG current change (%, negative = inhibition) at 10uM” value of the first is higher: -1.93% for the first, -9.19% for the second.

First: O=C(Nc1cccc(Cl)c1)Nc1csc([N+](=O)[O-])c1
Second: Cc1nn(C(=O)c2cccc([N+](=O)[O-])c2)c(C)c1Sc1ccccc1
The “hERG current change (%, negative = inhibition) at 10uM” value of the first is higher: 17.6% for the first, 7.61% for the second.

Compared with `CCOC(=O)C1=C(C)NC(=S)NC1c1ccco1` (centres unmarked), `CCOC(=O)c1c(C)[nH]c(C)c1S(=O)(=O)N1CCCCC1` is higher in “hERG current change (%, negative = inhibition) at 10uM” value: 14.7% for the first, 15.9% for the second.

Going from `C=CCn1c(N)c(C(=O)OCCC)c2nc3ccccc3nc21` to `CCCCn1c(NS(=O)(=O)c2ccccc2)c(C(=O)OCC)c2nc3ccccc3nc21`, the “hERG current change (%, negative = inhibition) at 10uM” value rises from -33% to -23.9%.

Compared with `C[C@@H](NC(=O)[C@@H]1Cc2ccccc2CN1)C(=O)NC1CCCCC1`, `COc1ccc(N(CC(=O)NC2CCCC2)C(=O)CCC(=O)Nc2cc(C)on2)cc1` is lower in “hERG current change (%, negative = inhibition) at 10uM” value: 15.2% for the first, -4.44% for the second.

Going from `O=C(CN1C(=O)S/C(=C\c2ccc(F)cc2)C1=O)NCCCn1ccnc1` to `CCCCNC(=O)c1ccc(NC(=O)CC2SC(N3CCCC3)=NC2=O)cc1` (centres unmarked), the “hERG current change (%, negative = inhibition) at 10uM” value rises from -58.9% to 11.8%.

Going from `CC(C)(C)c1ccc(/C=C/C(=O)c2ccc(NC3=NCCCS3)cc2)cc1` to `Cc1ccc(S(=O)(=O)Nc2cc(C(=O)O)ccc2N2CCCCC2)cc1`, the “hERG current change (%, negative = inhibition) at 10uM” value rises from -10% to 9.4%.

Going from `Cc1ccccc1NC(=O)/C(C#N)=C\c1ccsc1` to `CC(C)CNC(=S)NNC(=O)c1csc2ccccc12`, the “hERG current change (%, negative = inhibition) at 10uM” value rises from 11.5% to 12%.

First: O=C1CCN(Cc2ccccc2)CCN1[C@H](CSc1ccccc1)Cc1ccccc1
Second: O=S(=O)(c1ccccc1)N1CCN(c2ncnc3scc(-c4ccccc4)c23)CC1
The “hERG current change (%, negative = inhibition) at 10uM” value of the first is lower: -72.1% for the first, 13.2% for the second.

Compared with `CCOC(=O)N1CCN(C(=O)COCc2cc(-c3ccc4c(c3)OCO4)on2)CC1`, `O=C(Nc1ccccc1Cl)N1CCN(Cc2ccc3c(c2)OCO3)CC1` is higher in “hERG current change (%, negative = inhibition) at 10uM” value: -7.91% for the first, 8.37% for the second.

Going from `O=C(Cn1cc(S(=O)(=O)Cc2cccc([N+](=O)[O-])c2)c2ccccc21)N1CCOCC1` to `O=S(=O)(c1ccc(-c2ccccc2)cc1)N1CCOCC1`, the “hERG current change (%, negative = inhibition) at 10uM” value rises from -30.9% to 7.64%.

First: COc1cccc(CN2CC(C(=O)NCCN3CCOCC3)CCC2=O)c1 (centres unmarked)
Second: COc1ccc(CCNC(=O)C2CCN(S(=O)(=O)c3cccc4cccnc34)CC2)cc1OC
The “hERG current change (%, negative = inhibition) at 10uM” value of the first is lower: 10% for the first, 12.1% for the second.

Going from `Cc1cccc(CSCCNC(=S)Nc2ccccc2)c1` to `Cc1ccc(-c2cc(C(=O)NCCc3ccccn3)c3ccccc3n2)c(C)c1`, the “hERG current change (%, negative = inhibition) at 10uM” value falls from 11.2% to -51.1%.

Going from `CC1CCc2nc(N)c(C#N)c(-c3cccnc3)c2C1` (centres unmarked) to `Cc1cccc(NC(=O)c2sc3nc4c(c(-c5ccco5)c3c2N)CCC4)c1`, the “hERG current change (%, negative = inhibition) at 10uM” value rises from -19.3% to -3.19%.

Going from `Nc1nnc(N2CCc3ccccc32)s1` to `CC(=O)Nc1cc(C(=O)N2CCc3ccccc3C2)ccc1Sc1ccc(Cl)cc1`, the “hERG current change (%, negative = inhibition) at 10uM” value falls from 8.34% to -45%.

Going from `O=C(COC(=O)/C=C/c1cccs1)NC(=O)Cc1ccccc1` to `COc1ccc(C(=O)NC2CC3CCCC(C2)N3Cc2ccccc2)cc1` (centres unmarked), the “hERG current change (%, negative = inhibition) at 10uM” value falls from -5.24% to -53.5%.

First: COc1ccc(NC(=O)c2cc3cc(C)ccc3n2C)c(OC)c1
Second: COc1ccc2sc(N(CCN(C)C)C(=O)c3cc(Cl)sc3Cl)nc2c1.Cl
The “hERG current change (%, negative = inhibition) at 10uM” value of the first is higher: 5.55% for the first, -0.167% for the second.

First: Cc1noc(NS(=O)(=O)c2ccc(NC(=O)CSc3n[nH]c(-c4ccccc4)n3)cc2)c1C
Second: COc1ccc(-c2cn(-c3ccccc3)nc2CO)cc1
The “hERG current change (%, negative = inhibition) at 10uM” value of the first is higher: 12.7% for the first, -1.37% for the second.

Going from `Cc1ccc2[nH]c(CCN(C)C)c(CC#N)c2c1` to `Cc1cccc(-n2c(=O)[nH]c3c(C(N)=O)nc(CC(C)C)nc32)c1`, the “hERG current change (%, negative = inhibition) at 10uM” value rises from -44.7% to 2.66%.

Going from `Cc1cc(C)nc(SCc2ccc(Cl)cc2)n1` to `COC(=O)c1ccc(COc2c(F)c(F)cc(F)c2F)o1`, the “hERG current change (%, negative = inhibition) at 10uM” value rises from 8.23% to 11.7%.

Going from `COc1ccc(C(=O)N/N=C(\C)CC(=O)N2CCN(C=O)CC2)cc1` to `CCCCCOc1ccc(C(=O)CCC(=O)N2CCCC2)cc1`, the “hERG current change (%, negative = inhibition) at 10uM” value falls from 19% to -9.69%.

Compared with `C/C(CC(=O)Nc1ccc2c(c1)OCCO2)=N\NC(=O)COc1cccc(C)c1`, `CC(=O)Oc1ccc(N2C(=O)C3C4C=CC(CO)(O4)C3C2=O)cc1` (centres unmarked) is higher in “hERG current change (%, negative = inhibition) at 10uM” value: -6.02% for the first, 11.3% for the second.

First: Cc1nc(N2CCN(c3ccccn3)CC2)c2c(C)c(C(=O)Nc3c(C)cc(Br)cc3C)sc2n1
Second: O=C(NCc1ccccn1)C(=O)Nc1nc(C23CC4CC(CC(C4)C2)C3)cs1
The “hERG current change (%, negative = inhibition) at 10uM” value of the first is higher: 18.4% for the first, 7.23% for the second.

Going from `O=C(NC(=S)NC1C2CC3CC(C2)CC1C3)C12CC3CC(CC(C3)C1)C2` (centres unmarked) to `CCOC(=O)N1CCN(CC(O)COc2ccccc2[N+](=O)[O-])CC1.Cl` (centres unmarked), the “hERG current change (%, negative = inhibition) at 10uM” value rises from -1.16% to -0.882%.
